Source: PubChem BioAssay AID1030 (National Center for Advancing Translational Sciences (NCATS), 2008)
In all, about 220,000 compounds went through this assay and about 16,000 (7.3%) were called active. The inconclusive results got no clear call from the source; some entries with a clear call stand among them for comparison. Calls come from the whole dose curve; as a rule, active = well fitted inhibition curve with a large enough effect (not every such curve was filed as active); inconclusive = small, poorly fitted or top-dose-only effect, or another doubt; inactive = no such curve, though single readings can be large or run the other way. Potencies of inconclusive entries are left out as doubtful fits.
Potency is the fitted concentration of half-maximal effect; tags give direction and shape of the fitted curve.
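Throughout, for activity, negative = inhibition: plate controls were no enzyme wells and a reference inhibitor.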

These molecules were tested against Aldehyde dehydrogenase 1A1 (Homo sapiens) (UniProt P00352) (assay: qHTS Assay for Inhibitors of Aldehyde Dehydrogenase 1 (ALDH1A1)). Conditions: Purified ALDH1A1, NADH fluorescence, propionaldehyde substrate; series mostly up to 75.3 µM.
Chain of UniProt P00352 (P00352 whole entry, looked up): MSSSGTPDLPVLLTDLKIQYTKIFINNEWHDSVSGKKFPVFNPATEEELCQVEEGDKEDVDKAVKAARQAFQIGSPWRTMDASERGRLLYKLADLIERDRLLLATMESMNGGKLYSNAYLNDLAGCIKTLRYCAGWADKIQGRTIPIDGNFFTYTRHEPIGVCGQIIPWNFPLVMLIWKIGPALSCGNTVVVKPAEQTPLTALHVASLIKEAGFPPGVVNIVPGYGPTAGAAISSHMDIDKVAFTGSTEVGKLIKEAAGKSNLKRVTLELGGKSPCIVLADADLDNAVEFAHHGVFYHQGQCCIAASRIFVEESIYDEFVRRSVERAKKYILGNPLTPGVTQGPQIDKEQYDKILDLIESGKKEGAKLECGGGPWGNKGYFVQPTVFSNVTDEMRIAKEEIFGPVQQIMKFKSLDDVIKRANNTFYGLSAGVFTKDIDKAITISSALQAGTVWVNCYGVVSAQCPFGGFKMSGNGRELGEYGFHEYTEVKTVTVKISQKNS
`CSc1nc2nccc(-c3ccc(Oc4ccccc4)cc3)n2n1` was tested, and the Potency was inconclusive [inhibitor, single point]. For `O=C(Cc1cccs1)NC1CCCC1`, the Potency was “inactive”. `C=CCn1c(SCC(=O)Nc2nnc(CC)s2)nnc1-c1ccncc1` was tested, and the Potency was “inactive”. With `Cc1nc(NCC2CCCO2)c2nnn(Cc3ccccc3Cl)c2n1` (configuration not stated) the Potency was “inactive”. In the case of `COc1ccc(/C=C/C(=O)OCC(=O)NCc2ccco2)c(OC)c1`, the Potency was inconclusive [inhibitor, partial curve]. With `Cc1ccc(NC(=O)c2cc(NC(=O)C3CC=CCC3C(=O)O)ccc2N2CCOCC2)cc1` (configuration not stated) the Potency was active: 12.6 µM. For `O=C(NC1CCCCCCC1)C1CCC(CNc2c(N3CCCC3)c(=O)c2=O)CC1` (configuration not stated), the Potency was inconclusive [inhibitor, single point]. With `COc1ccc(NC2(c3ccc(Cl)cc3)C(=O)c3ccccc3C2=O)cc1` the Potency was inconclusive [inhibitor, partial curve, poor fit]. With `Cn1c(=O)cc(SCC(=O)NCCCN2CCOCC2)c2ccc(Cl)cc21` the Potency was inconclusive [inhibitor, single point]. `CCOC(=O)Nc1ccc2c(CN3C(=O)NC(CC)(CC)C3=O)cc(=O)oc2c1` was tested, and the Potency was inconclusive [inhibitor, full curve]. In the case of `CCn1c(C(C)NC(=O)c2cccs2)n[nH]c1=S` (configuration not stated), the Potency was “inactive”. With `Cc1ccccc1Nc1nc2ccccc2n1C(C)C` the Potency was inconclusive [inhibitor, single point]. With `O=C(CSc1nncs1)Nc1ccc(S(=O)(=O)N2CCCC2)cc1` the Potency was “inactive”. For `O=C(NCC1(c2ccccc2)CCOCC1)c1ccc(Br)o1`, the Potency was inconclusive [inhibitor, single point]. `CCOC(=O)c1oc2nc(C(C)C)c3c(c2c1N)CC(C)(C)OC3` was tested, and the Potency was inconclusive [inhibitor, partial curve]. With `Cc1cc(C)n2nc(SCC(=O)N(C)c3c(N)n(Cc4ccccc4)c(=O)[nH]c3=O)nc2n1` the Potency was “inactive”. For `COc1ccc(NC(=O)/C=C/c2ccc3c(c2)OCO3)cc1`, the Potency was inconclusive [inhibitor, partial curve]. `CCNc1ncc2nc(-c3ccc(F)cc3)c(=O)n(Cc3ccc(F)cc3)c2n1` was tested, and the Potency was inconclusive [inhibitor, partial curve]. With `O=C(CSc1ccccc1)Nc1cc(S(=O)(=O)N2CCOCC2)ccc1N1CCOCC1` the Potency was “inactive”. `COc1ccc(-n2nc([N+](=O)[O-])c(=NC3CCN(Cc4ccccc4)CC3)n2O)cc1` was tested, and the Potency was “inactive”. `CCCCc1nc2c(c3c1C[C@H](C)OC3)CN(C(=O)NCCCC(=O)OCC)CC2` was tested, and the activity, negative = inhibition was inactive: 9.39% [at 13.5 µM]. For `Cc1nn(C(C)CC(=O)O)c(C)c1C` (configuration not stated), the Potency was inconclusive [inhibitor, single point]. `O=S(=O)(/N=C/c1c(O)ccc2ccccc12)c1cccs1` was tested, and the Potency was active: 11.2 µM. `C=CCn1nnnc1SCC(=O)Nc1cccc(OC)c1` was tested, and the Potency was “inactive”. With `c1cc(C(c2nnnn2C2CCCC2)N2CCOCC2)ccn1` (configuration not stated) the Potency was inconclusive [inhibitor, single point]. In the case of `O=C1CC(c2ccccc2)CC(O)=C1C=NC1CCCCC1` (configuration not stated), the Potency was inconclusive [inhibitor, partial curve]. With `Cn1c(=O)c(CCc2ccccc2)nc2cnc(N3CCOCC3)nc21` the Potency was inconclusive [inhibitor, single point]. With `Cc1csc(SCC(=O)NC(=O)NCCC(C)C)n1` the Potency was inconclusive [inhibitor, partial curve]. For `CC(C)(C)C1=C[C@@H](CO)C[C@@H](CO)C1`, the Potency was active: 28.2 µM. In the case of `CCN1CCN(C(=O)c2ccc(OC)c(S(=O)(=O)Nc3ccc(C)cc3)c2)CC1`, the Potency was “inactive”. In the case of `COc1ccccc1-c1cc(=O)c2cc(O)ccc2o1`, the Potency was “inactive”. In the case of `O=C(C1=NNC2C(=O)N(c3ccccc3)C(=O)C12)c1nc(Cl)ccc1Cl` (configuration not stated), the Potency was “inactive”. For `Cc1ccc(S(=O)(=O)NCC(=O)N2CCOCC2)cc1`, the Potency was inconclusive [inhibitor, single point]. In the case of `CN1C(=O)/C(=C/c2cn(CC(=O)NCc3ccco3)c3ccccc23)NC1=S`, the Potency was inconclusive [inhibitor, full curve]. For `O=C(Cc1ccccc1)NCC(=O)N1CCCCCC1`, the Potency was “inactive”. `COC(=O)C(NS(C)(=O)=O)(c1c(C)[nH]c2ccccc12)C(F)(F)F` (configuration not stated) was tested, and the Potency was “inactive”. For `Cc1cc(N2CCN(C)CC2)nc2ccc(NC(=S)N3CCOCC3)cc12`, the Potency was “inactive”. `O=C1OC2(c3ccc(O)cc3Oc3cc(O)ccc32)c2ccccc21` was tested, and the Potency was “inactive”. In the case of `O=C(Nc1nnc(SCc2ccccn2)s1)C1CC(=O)N(c2ccccc2)C1` (configuration not stated), the Potency was inconclusive [inhibitor, single point]. In the case of `CC(C)CCOP(=O)(c1ccc(N(C)C)cc1)C(O)c1ccccc1F` (configuration not stated), the Potency was inconclusive [inhibitor, single point]. With `COc1cc(CCN2C(=O)c3cccc4cccc(c34)C2=O)c(S(=O)(=O)N2CCC(C)CC2)cc1OC` the Potency was inconclusive [inhibitor, single point]. `CCN(C(=O)c1cc2cc(OC)ccc2oc1=O)c1cccc(C)c1` was tested, and the Potency was inconclusive [inhibitor, single point]. For `COC(=O)c1cc(Br)c(=O)n(-c2ccccc2F)c1`, the Potency was “inactive”. In the case of `O=C(CS(=O)(=O)Cc1ccccc1)Nc1nc2ccccc2s1`, the Potency was “inactive”. With `CCC(O)CNc1nc(-n2nc(C)cc2C)nc2sc3c(c12)CCCC3` (configuration not stated) the Potency was “inactive”. For `CN(C)S(=O)(=O)c1cccc(NC(=S)N/N=C/c2cccc(O)c2)c1`, the Potency was “inactive”. In the case of `C=CCOC(=O)c1[nH]c2c(c1C)C(=O)CC(c1cc(OC)c(OC)c(OC)c1)C2` (configuration not stated), the Potency was inconclusive [inhibitor, full curve]. In the case of `Cc1ccccc1NC(=S)NCc1ccccc1`, the Potency was “inactive”. `C=CCSC1=Nc2sccc2C2=NC(=O)CN12` was tested, and the Potency was active: 14.1 µM. With `CN(C)c1ccc(NC(=O)COC(=O)c2cc(=O)c3ccccc3o2)cc1` the Potency was inconclusive [inhibitor, single point]. For `O=C(O)COc1ccc(OCCNC[C@@H](O)COc2ccccc2)cc1`, the Potency was “inactive”. For `CN(C)c1ccc(-n2cc3c(=O)n(C)c(=O)n(C)c3c2)cc1`, the Potency was inconclusive [inhibitor, partial curve]. `Clc1ccccc1OCCN1CCC(Cc2ccccc2)CC1` was tested, and the Potency was inconclusive [inhibitor, partial curve]. `Cc1ccc(C)c(N2CCN(Cc3nnnn3C3CCCCC3)CC2)c1` was tested, and the Potency was inconclusive [inhibitor, single point]. For `O=S(=O)(c1ccccc1)N1CCN=C1SCc1ccc(Cl)cc1`, the Potency was inconclusive [inhibitor, single point]. With `O=C(NCc1ccc2c(c1)OCO2)c1cccs1` the Potency was “inactive”. With `COC(=O)NC1(C(F)(F)F)C(=O)Nc2c1c(=O)n(C)c(=O)n2C` (configuration not stated) the Potency was “inactive”. In the case of `CCN(CC)CCOc1cc2c(nn1)Oc1ccccc1N2C`, the Potency was inconclusive [inhibitor, single point]. With `COc1cc(NC(=O)c2cc(C3CC3)on2)c(OC)cc1Cl` the Potency was inconclusive [inhibitor, partial curve]. For `COc1ccc2[nH]cc(CCNc3ccnc(-c4ccc5c(c4)OCO5)n3)c2c1`, the Potency was inconclusive [inhibitor, single point]. In the case of `CCc1sc(NC(=O)CN2CCOCC2)nc1-c1ccccc1`, the Potency was inconclusive [inhibitor, single point]. In the case of `CCCC(=O)Nc1cc2c(cc1C(C)=O)OCCO2`, the Potency was inconclusive [inhibitor, single point]. `C/C(=N\Nc1ccc([N+](=O)[O-])cc1)c1ccco1` was tested, and the Potency was inconclusive [inhibitor, single point]. `CCCCn1cnc2c([nH]c3ccccc32)c1=O` was tested, and the Potency was inconclusive [inhibitor, single point]. With `COc1ccccc1NC(=O)N1CCN(Cc2ccc3c(c2)OCO3)CC1` the Potency was inconclusive [inhibitor, single point]. In the case of `Cc1nc(-c2nc(-c3c(C(=O)NN)noc3C)cs2)cs1`, the Potency was “inactive”. For `CCOC(=O)c1[nH]c(C)c(C(=O)NCCCOC(C)C)c1C`, the Potency was “inactive”. For `COCCn1nnnc1C(c1ccc2ncccc2c1)N1CCc2ccccc21` (configuration not stated), the Potency was inconclusive [inhibitor, single point]. In the case of `CSc1n[nH]c(=O)n1C1CCCCC1`, the Potency was “inactive”. In the case of `O=C(C1CCC(N2C(=O)C3CC=CCC3C2=O)CC1)N1CCCCC1` (configuration not stated), the Potency was inconclusive [inhibitor, single point]. `CCOC(=O)C1CCN(C(=O)C2CCN(S(=O)(=O)N3CCCC3)CC2)CC1` was tested, and the Potency was inconclusive [inhibitor, single point]. For `C/C(=C\C1CCCCC1)C(NC(=O)c1cccnc1)c1ccc(-c2ccccc2)cc1` (configuration not stated), the Potency was “inactive”. In the case of `CCN(C(=S)Nc1ccc(C(C)=O)cc1)C1CCCCC1`, the Potency was “inactive”. For `CCCN1C(=O)/C(=C\C=C2\N(CC)c3ccccc3C2(C)C)SC1=S`, the Potency was inconclusive [inhibitor, partial curve]. With `O=C(Nc1nc2c(s1)CCCC2)c1cccnc1` the Potency was active: 11.2 µM. In the case of `COc1cc(OC)c2c(c1)OC(c1ccccc1)CC2=O` (configuration not stated), the Potency was inconclusive [inhibitor, single point]. With `O=C(c1cccc(Oc2c(Cl)cccc2[N+](=O)[O-])c1)N1CCCCC1` the Potency was inconclusive [inhibitor, single point].
